Here are results for 44 compounds from paper PMC4336329 (PLoS ONE, 2015).

The structures appear in SMILES notation. The whole screen tested about 310,000 compounds, of which about 14,000 (4.5%) showed an effect of 50% or more. Effects have a minus sign here. Some of the results follow. Where a SMILES comes first, the peptide text is derived from it. [ ]: non-standard residue; d: D form. The star is where a group is joined. ξ: configuration not given here. Cbz = O=C(OCc1ccccc1)*; ξL = CC(C)CC(N)C(=O)O; ξP = O=C(O)C1CCCN1
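Also: peak tail current of the secondary pulse compared with the same well before compound.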

Chain of human ether-à-go-go-related gene (hERG) potassium channel (Q12809 whole entry, looked up): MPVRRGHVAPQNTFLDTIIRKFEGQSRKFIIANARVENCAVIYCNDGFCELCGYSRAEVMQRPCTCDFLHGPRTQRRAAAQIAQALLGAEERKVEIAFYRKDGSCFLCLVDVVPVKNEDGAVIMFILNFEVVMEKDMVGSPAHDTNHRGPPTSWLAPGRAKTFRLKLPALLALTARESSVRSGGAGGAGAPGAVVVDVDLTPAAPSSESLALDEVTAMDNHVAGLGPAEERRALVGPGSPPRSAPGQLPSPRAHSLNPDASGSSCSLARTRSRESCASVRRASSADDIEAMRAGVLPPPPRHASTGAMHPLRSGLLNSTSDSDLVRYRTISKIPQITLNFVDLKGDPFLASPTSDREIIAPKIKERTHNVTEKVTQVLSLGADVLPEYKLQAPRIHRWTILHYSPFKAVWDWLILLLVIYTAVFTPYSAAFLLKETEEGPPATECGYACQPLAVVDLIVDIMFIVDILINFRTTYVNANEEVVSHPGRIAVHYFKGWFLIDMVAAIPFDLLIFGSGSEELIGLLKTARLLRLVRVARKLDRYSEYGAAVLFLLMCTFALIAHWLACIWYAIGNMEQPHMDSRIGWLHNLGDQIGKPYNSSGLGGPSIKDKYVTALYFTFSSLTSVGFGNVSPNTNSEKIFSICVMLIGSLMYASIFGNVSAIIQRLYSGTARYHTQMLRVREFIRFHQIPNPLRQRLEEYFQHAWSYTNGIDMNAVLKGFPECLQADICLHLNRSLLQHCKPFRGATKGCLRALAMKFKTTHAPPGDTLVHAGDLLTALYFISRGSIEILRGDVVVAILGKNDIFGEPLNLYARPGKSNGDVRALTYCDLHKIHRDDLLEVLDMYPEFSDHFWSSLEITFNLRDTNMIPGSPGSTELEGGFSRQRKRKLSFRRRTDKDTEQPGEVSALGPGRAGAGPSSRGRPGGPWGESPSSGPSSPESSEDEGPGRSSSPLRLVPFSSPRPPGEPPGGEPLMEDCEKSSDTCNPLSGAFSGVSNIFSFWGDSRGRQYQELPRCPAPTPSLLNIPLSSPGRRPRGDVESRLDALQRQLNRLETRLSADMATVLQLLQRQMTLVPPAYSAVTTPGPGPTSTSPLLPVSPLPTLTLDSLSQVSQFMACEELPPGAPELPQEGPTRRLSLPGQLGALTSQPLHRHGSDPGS

The experiment has as its target human ether-à-go-go-related gene (hERG) potassium channel (human, UniProt Q12809). The experiment in a line: primary screen, population patch clamp on CHO cells stably expressing hERG.
Turning to `CN1CCN(NC(=O)c2ccc(Cl)c([N+](=O)[O-])c2)CC1`, the “hERG current change (%, negative = inhibition) at 10uM” value was determined as 8.74%.

For `Cc1cccc2nc(CSc3nc4[nH]ncc4c(=O)n3-c3ccccc3Cl)cc(=O)n12`, the “hERG current change (%, negative = inhibition) at 10uM” value was -21.5%.

As for `O=C(CCC1CCCC1)NCCCN1CCOCC1`, the “hERG current change (%, negative = inhibition) at 10uM” value is 5.52%.

For the compound `Cc1cc(C)n2cnnc2n1`, the “hERG current change (%, negative = inhibition) at 10uM” value was 42.1%.

As for `Cc1cc(=O)oc2c(CN3CCCCC3)c(O)c(Cl)cc12`, the “hERG current change (%, negative = inhibition) at 10uM” value is listed as -5.43%.

For `O=C(C[n+]1cc(Br)cc2ccccc21)c1ccc(Cl)cc1.[Br-]`, the “hERG current change (%, negative = inhibition) at 10uM” value is -49.8%.

In the case of `CCCc1nnc(NC(=O)CCS(=O)(=O)c2ccccc2)s1`, the “hERG current change (%, negative = inhibition) at 10uM” value was 4.2%.

`COC(=O)C1=C(c2cccc(OC)c2OC)C[C@@H]2CC[C@H]1N2C(=O)NC(C)C`: the “hERG current change (%, negative = inhibition) at 10uM” value is 13.7%.

Turning to `CC(C)(Oc1ccc(Cl)cc1)C(=O)Nc1ccc2oc(=O)ccc2c1`, the “hERG current change (%, negative = inhibition) at 10uM” value is on record as -28.6%.

With `O=C(CN1C2CCCC1CC(NC(=O)c1ccccc1)C2)NC1CC1` (centres unmarked), the “hERG current change (%, negative = inhibition) at 10uM” value is recorded as 26.9%.

As to `O=C(Cn1nc(-c2ccc(Cl)cc2)ccc1=O)N1CCN(c2ccccc2)CC1`, the “hERG current change (%, negative = inhibition) at 10uM” value is -35.9%.

For the compound `CC12CCC(C(=O)Nc3ccccc3)(C/C1=N\O)C2(C)C` (centres unmarked), the “hERG current change (%, negative = inhibition) at 10uM” value worked out at 10.9%.

Take `C[C@]12CC[C@@H]3c4ccc(O)cc4CC[C@H]3[C@@H]1CC[C@@H]2OC(=O)CCC(=O)O`: the “hERG current change (%, negative = inhibition) at 10uM” value came out at 24.9%.

Turning to `CS(=O)(=O)c1ccc(-c2cccc(NC(=O)c3ccco3)c2)nn1`, the “hERG current change (%, negative = inhibition) at 10uM” value is 9.27%.

Turning to `CCSc1nnc([C@H](Cc2ccccc2)NC(=O)OC(C)(C)C)o1`, the “hERG current change (%, negative = inhibition) at 10uM” value is reported as -11.6%.

Take `COc1ccc(OC)c(S(=O)(=O)Nc2cccnc2)c1`: the “hERG current change (%, negative = inhibition) at 10uM” value is reported as 5.18%.

On to `Cc1ccc(CN2CCCC(C(=O)N3CCCC3)C2)cc1.O=C(O)C(=O)O` (centres unmarked), for which the “hERG current change (%, negative = inhibition) at 10uM” value is on record as -5.83%.

On to `O=[N+]([O-])c1ccc(C(O)C23CN4CN(CN(C4)C2)C3)cc1` (centres unmarked), for which the “hERG current change (%, negative = inhibition) at 10uM” value was determined as 24.9%.

Turning to `CC(C)CC(NC(=O)C1CCCN1C(=O)[C@@H](C)NC(=O)OCc1ccccc1)C(=O)NCC(N)=O` (some centres unmarked) (Cbz-[dA][ξP][ξL]G-NH2), the “hERG current change (%, negative = inhibition) at 10uM” value is 1.76%.

On to `CN1CCc2c(sc3c2C(=O)NC(c2ccc(-c4cccc(Cl)c4)o2)N3)C1` (centres unmarked), for which the “hERG current change (%, negative = inhibition) at 10uM” value is recorded as -33.6%.

As to `COc1ccccc1CN(C)C(=O)c1cccc(S(=O)(=O)N2CCCC2)c1`, the “hERG current change (%, negative = inhibition) at 10uM” value is listed as -5.48%.

Take `Cc1cccc(-[n+]2c(-c3cccc(Br)c3)[nH]c3nc4ccccc4nc32)c1`: the “hERG current change (%, negative = inhibition) at 10uM” value came out at 12.9%.

Take `O=C(c1ccc(F)cc1)c1cn(Cc2ccc(F)cc2)c2cc3c(cc2c1=O)OCCO3`: the “hERG current change (%, negative = inhibition) at 10uM” value is listed as -71.1%.

Take `COc1cc2nc(=S)n3[nH]c(CCn4nc(C)cc4C)nc3c2cc1OC`: the “hERG current change (%, negative = inhibition) at 10uM” value was 12.5%.

On to `Cc1ccc(S(=O)(=O)/N=C/c2ccc(N(C)C)cc2)cc1`, for which the “hERG current change (%, negative = inhibition) at 10uM” value came out at 19.5%.

As for `COc1ccc(NS(=O)(=O)c2cc(NC(=O)c3cc(F)c(F)c(F)c3F)ccc2N2CCCC2)cc1`, the “hERG current change (%, negative = inhibition) at 10uM” value was -1.13%.

In the case of `Cc1cccn2c(=O)c(/C=C(\C#N)S(=O)(=O)c3ccc(Cl)cc3)c(N3CCC(C(N)=O)CC3)nc12`, the “hERG current change (%, negative = inhibition) at 10uM” value was -77.8%.

For `CC1CN(C(=O)CCC(=O)N2CCCCC2)c2cc(Cl)ccc2O1` (centres unmarked), the “hERG current change (%, negative = inhibition) at 10uM” value is given as -2.56%.

In the case of `O=C(N/N=C/c1cccc([N+](=O)[O-])c1)c1cc[n+](CCO)cc1.[Cl-]`, the “hERG current change (%, negative = inhibition) at 10uM” value turned out to be 19.9%.

For the compound `CC(Oc1ccccc1)c1ccnc2nc(N3CCOCC3)nn12` (centres unmarked), the “hERG current change (%, negative = inhibition) at 10uM” value is given as -2.09%.

Take `Cc1scc(-c2n[nH]c(=S)n2C(C)c2ccccc2)c1C` (centres unmarked): the “hERG current change (%, negative = inhibition) at 10uM” value is listed as -7.97%.

With `O=C(Nc1ccc(Cl)cc1)c1cc(Br)ccc1OCC(=O)N1CCOCC1`, the “hERG current change (%, negative = inhibition) at 10uM” value stood at 5.76%.

`O=C(O)c1ccc(OCc2cn3ccccc3n2)cc1`: the “hERG current change (%, negative = inhibition) at 10uM” value is recorded as -5.59%.

Take `COc1ccccc1NC(=S)NC(=O)/C=C/c1cccs1`: the “hERG current change (%, negative = inhibition) at 10uM” value is given as 18.3%.

`O=c1cc(O)c2ccccc2n1Cc1ccccc1Cl`: the “hERG current change (%, negative = inhibition) at 10uM” value is given as 8.82%.

As for `COCCN1CCN(C(=O)c2ccc3oc(CCCc4ccccc4)nc3c2)CC1`, the “hERG current change (%, negative = inhibition) at 10uM” value came out at 0.632%.

`Cc1cccc(NC(=O)N2C[C@H]3C[C@@H](C2)c2cccc(=O)n2C3)c1`: the “hERG current change (%, negative = inhibition) at 10uM” value amounted to 5.3%.

For the compound `CC(C)CNC(=O)c1ccc(C2SCC(=O)N2Cc2ccccc2)cc1` (centres unmarked), the “hERG current change (%, negative = inhibition) at 10uM” value was -16.6%.

For the compound `O=C1c2ccccc2NC2CCCCC12` (centres unmarked), the “hERG current change (%, negative = inhibition) at 10uM” value is given as 9.29%.

As to `CC(C)(C)C1=C(C#N)C(c2cc3c(cc2Br)OCO3)C(C#N)=C(N)O1` (centres unmarked), the “hERG current change (%, negative = inhibition) at 10uM” value amounted to 10.2%.

With `O=C1NC(=O)C2(Cc3ccccc3N3CCOCC32)C(=O)N1c1ccccc1` (centres unmarked), the “hERG current change (%, negative = inhibition) at 10uM” value was -6.1%.

For the compound `COCCCNCCOCCOc1c(OC)cccc1OC`, the “hERG current change (%, negative = inhibition) at 10uM” value turned out to be 3.46%.

With `CC(NC(=O)c1ccco1)C(=O)O` (centres unmarked), the “hERG current change (%, negative = inhibition) at 10uM” value was -15.9%.

Consider `CC(C)NS(=O)(=O)c1ccc(NC(=O)C(C)OC(=O)CCC2CCCC2)cc1` (centres unmarked), for which the “hERG current change (%, negative = inhibition) at 10uM” value is recorded as 7.06%.
